According to article PMC12040169 (PLOS Biology, 2025):
This is one part of the list.

What follows are compounds tested on T1, C. trachomatis L2/434/Bu expressing GFP (CTL2-GFP). Conditions: total inclusion area; 28.5 h, 10 µM; inhibitor.
T1 construct: L2/434/Bu GFP intracellular growth in HeLa cells
Set-up: species or system HeLa; C. trachomatis total inclusion area by high-content imaging, normalised to DMSO
Summary of the method: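 High-content images of fixed, Hoechst-stained infected cultures supply inclusion area and count (growth) plus nuclei number (viability), complementing bulk GFP/resorufin fluorescence. MIC determination is unchanged from the primary assay.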

SMILES	% of control remaining
O=C(O)CCN1C(=O)c2ccc(NC(=O)c3ccccc3Cl)cc2C1=O [CBK268413]	75.3631
OCCNc1cncc(-c2ccccc2)n1 [CBK065857]	100.534
O=S(=O)(NCc1ccccc1)c1cc(S(=O)(=O)c2ccc(Cl)cc2)ccc1Cl [CBK263207]	63.8598
Cc1cccc(CNc2nccnc2-c2cccc(N)c2)c1 [CBK038080]	92.0111
Cc1nc(-c2ccccc2F)sc1C(=O)Nc1ccccn1 [CBK287979]	107.955
Cc1ccc(CN2CC[C@H]3[C@@H](C2)[C@H](c2ccsc2)CN3C(=O)c2ccc(F)cc2)cc1 [CBK285637]	85.7064
CC(C)(C)OC(=O)N1CCCC(C(=O)Nc2ccccn2)C1 (stereo not drawn) [CBK304524]	64.6069
CCc1nc(NC(=O)c2ccnc(Cl)c2)sc1C [CBK298287]	87.5927
O=C(CN1C(=O)C2C3c4ccccc4C(c4ccccc43)C2C1=O)OCC(=O)c1ccc(F)cc1 (stereo not drawn) [CBK264861]	113.509
CC1CCCCN1S(=O)(=O)c1ccc(NCCC(=O)c2ccc(Cl)cc2)cc1 (stereo not drawn) [CBK268529]	102.07
Cc1nc(C2(O)CCCN(C3CCCC3)CC2)sc1COc1ccc(F)c(F)c1 (stereo not drawn) [CBK286259]	64.4466
C(=C\C1Nc2ccccc2-c2nnc(SCc3ccccc3)nc2O1)/c1ccccc1 (stereo not drawn) [CBK264447]	91
Brc1ccccc1-c1nnc2n1CCCCC2 [CBK200092]	93.0559
Brc1cn2ccnc2c(NCCc2ccccn2)n1 [CBK066244]	60.3897
COc1ccc(-c2cnc3[nH]c(=O)n(Cc4cccs4)c3n2)c(OC)c1OC [CBK064716]	72.2542
CS(=O)(=O)N1CCN(Cc2cc(Br)ccc2O)CC1 [CBK263620G]	94.9068
COc1ccc2c(c1)c(=O)oc1c(CN3CCCC3)c(O)ccc12 [CBK266814]	88.5884
Nc1cc2ccccc2c(-c2ccc(OC(F)(F)F)cc2)n1 [CBK085725]	58.9277
Cc1cccc(NC(=O)c2n[nH]c3ccccc23)c1 [CBK288231]	81.6122
O=c1[nH]c2ncc(-c3cccc(-c4ccccc4)c3)nc2n1CCCN1CCOCC1 [CBK064311]	84.7624
O=C(O)c1cc(S(=O)(=O)NCc2ccco2)ccc1Br [CBK306193]	43.0951

SMILES	% of control remaining
Cc1cnc2[nH]c(C(C)C)c(CN3CCCOCC3)c2c1 [CBK284742]	106.305
O=C(CN(c1ccc(F)cc1)S(=O)(=O)c1ccccc1)Nc1ccc2c(c1)OCCO2 [CBK265215]	114.689
O=C(Nc1nccs1)c1ncn[nH]1 [CBK028821]	95.9209
COc1cc(C(=O)N/C(=C\c2ccc(O)cc2)C(=O)O)cc(OC)c1OC [CBK262607]	91.5889
O=C(O)C1CCN(S(=O)(=O)c2ccc(F)cc2)CC1 [CBK100196]	64.0007
CC1=NN(c2nc(-c3ccc(Br)cc3)cs2)C(=O)C1/N=N/c1cccc(CO)c1 (stereo not drawn) [CBK262429]	108.1
O=[N+]([O-])c1cc(CN2CCCCC2)c2cccnc2c1O [CBK265121]	109.17
CCCCCC1/C(=N\O)CCC1CC(=O)OC (stereo not drawn) [CBK019978]	39.9377
Cc1c(NC(=S)NC(=O)COc2ccc(Cl)cc2)cccc1C(=O)O [CBK265070]	120.413
COc1ccccc1-c1cnc(N)c(NC2CCOCC2)n1 [CBK063853]	115.032
O=C(NCCCN1CCOCC1)c1c(Cl)cccc1Cl [CBK263631]	109.036
O=C(CC(C(=O)O)C1CCCO1)Nc1ccc(Cl)cc1Cl (stereo not drawn) [CBK261509]	108.493
CNC(=O)c1cn2cc(-c3cccs3)n(CC3CC3)c(=O)c2n1 [CBK306838]	98.9465
CN1CCC[C@H]1C(=O)N1CCC(Cn2cncn2)(C2CCCCC2)CC1 [CBK136818]	119.943
COc1cc(OC)c(CN2CC3(C)CC2CC(C)(C)C3)cc1Br (stereo not drawn) [CBK307074]	35.2047
CC1Oc2ccc(NC(=O)C3CC4C=CC3C43CC3)cc2NC1=O (stereo not drawn) [CBK281523]	84.9967
Cc1ccc(S(=O)(=O)N2CCOCC2)cc1-c1cncc(-c2ccc(O)cc2)n1 [CBK123789]	68.6916
COc1ccc(/C(C)=N/NC(=N)SC2CC(=O)N(c3ccc(C(=O)O)cc3)C2=O)cc1F (stereo not drawn) [CBK262805]	95.8808
FC(F)(F)c1ccnc(SCCOc2ccccc2)n1 [CBK103721]	56.7509
Cc1ccc(C)c(C(=O)CCC(=O)Nc2cccnc2)c1 [CBK266902]	99.2436
CCn1cnc2cc(NC(=O)c3ccc(C)n(C)c3=O)ccc21 [CBK281402]	88.5277

SMILES	% of control remaining
Cc1cc2cc3n(c2nn1)N=C(Cl)CC3 [CBK019458]	46.5215
CC(=O)N1CCc2c(sc(NC(=O)c3ccccc3C)c2C#N)C1 [CBK304681]	20.5788
Brc1cnn(-c2ccccc2)c1 [CBK027172]	39.3105
O=C(CCCc1ccccc1)Nc1c(F)cc(F)cc1OC1CCNCC1 [CBK050222T]	88.1002
c1cncc(CN2CCC(Oc3cncc(OCC4COc5ccccc5O4)n3)C2)c1 (stereo not drawn) [CBK084365]	90.924
CC(C)n1cnnc1CN1CCN(c2ccc(C#N)cc2)CC1 [CBK307714]	89.4074
CCOc1ccccc1NC(C)CC(=O)O (stereo not drawn) [CBK058826]	107.121
COC(=O)c1cn([C@H]2CO[C@H]3[C@@H]2OC[C@H]3O)nn1 [CBK289491]	100.371
O=C(Cc1c[nH]c2ccccc12)N1CCC2(CCCN(C(=O)c3cccnc3)C2)C1 (stereo not drawn) [CBK131604]	96.0278
Nc1ncnc2c1nc1n2[C@H]2C[C@@H](O)[C@H](O2)C1=O [CBK201259]	134.922
CCCc1ccc(S(=O)(=O)Nc2nc(C)c(C(=O)O)s2)cc1 [CBK045555]	92.6134
CN(CP(=O)(O)CCc1ccccc1)S(C)(=O)=O [CBK263068]	90.3117
CS(=O)(=O)N(CC(=O)Nc1ccc(S(=O)(=O)N2CCCC2)cc1)c1ccc2c(c1)OCO2 [CBK268995]	105.987
O=C(CNS(=O)(=O)c1ccc(Oc2ccccc2)cc1)Nc1ccc(F)cc1 [CBK042229]	59.9315
O=C(c1cnc2cc(C(F)(F)F)ccc2c1O)N1CCN(c2ccccn2)CC1 [CBK107431]	69.1006
COc1ccc(C(=O)N2CCC3(CCN(Cc4ccc(Cl)c(Cl)c4)C3)C2)cc1OC (stereo not drawn) [CBK132150]	86.356
O=C(C1CCN(S(=O)(=O)c2ccc3ccccc3c2)CC1)N1CCC(Cc2ccccc2)CC1 [CBK269558]	77.2025
O=C(CN1C(=O)c2ccccc2S1(=O)=O)N(Cc1ccccc1)Cc1ccccc1 [CBK265982]	62.9026
O=C(Nc1cccc(-c2nc3ccccc3s2)c1)c1ccc(Cn2cnnn2)cc1 [CBK285823]	119.829
COc1ccnc(N2CCN(C(=O)c3cc(C)nn3C)CC2)n1 [CBK305967]	43.7895
CN(C1CCCCC1)S(=O)(=O)NCCc1cn2ccccc2n1 [CBK305576]	96.0579

SMILES	% of control remaining
O=S(=O)(Nc1nc(-c2ccccc2Cl)cs1)c1sc(Cl)cc1Br [CBK200028]	86.0347
CC(C)Cn1c(=O)[nH]c2ncc(-c3ccc(O)cc3)nc21 [CBK065011]	73.1982
O=C(O)C1CCCN(C(=O)Cc2csc(COc3ccc(Cl)cc3)n2)C1 (stereo not drawn) [CBK304501]	66.9356
CNCC(=O)N1CCN(C(=O)c2ccc(Cl)cc2Cl)CC1 [CBK029576]	3.225
O=C(CCc1c[nH]c2ccccc12)Nc1ccccc1C(=O)O [CBK287242]	111.021
Cc1cc(NC(=O)C2CCN(C(=O)c3c(F)cccc3F)CC2)no1 [CBK304359]	67.529
COc1ccc(CCNc2ncnc3[nH]cnc23)cc1OC [CBK134342]	103.676
CCOC(=O)c1cccc(-n2ncc(CN(C)C)n2)c1 [CBK112866]	84.632
O=C(O)[C@H]1Nc2ccc(Br)cc2[C@H]2[C@H](O)[C@H](O)C[C@H]21 [CBK303242]	77.9851
CC(C)OC(=O)[C@@H]1CCN(C(=O)CCC2NC(=O)NC2=O)[C@@H]1c1ccc(F)cc1 (stereo partly drawn) [CBK285520]	77.5369
O=C(O)Cc1ccc(OCC(=O)NCc2ccc(Cl)cc2Cl)cc1 [CBK296628]	97.2639
Cn1nccc1NS(=O)(=O)c1ccc(-c2cnco2)s1 [CBK062088]	59.3155
COc1ccc2cc([C@@H](O)C[C@@H](C)O)c(Cl)nc2c1 [CBK022146]	95.0045
Cc1csc(C(Cc2ccsc2)NCc2cccnc2)n1 (stereo not drawn) [CBK285020]	104.562
CN1C(=O)c2ccccc2OCCCCC[C@H]2[C@@H]1CCCN2C(=O)c1ccccc1Cn1cncn1 [CBK292114]	86.8073
CCC1(CC)CCN(C(=O)CCn2ccc3ccncc32)C1 [CBK285176]	86.9103
COCc1cccc(-c2ncc(OCCN3CCCC3=O)nc2NC(C)=O)c1 [CBK145239]	102.301
Cn1ccnc1C1(O)CC2CCC(C1)N2C(=O)c1c(F)cccc1F (stereo not drawn) [CBK284092]	86.2164
